Results on three molecules are retold here after PMC6769691 (International Journal of Molecular Sciences, 2019).

Settings in all cases: both partners purified
Test [1] has as its target T1, TNFR2 fused to the Fc portion of an IgG molecule (UniProt P20333 23-257). Briefly: SPR; stoichiometry evaluation at different receptor densities (anti-Fc Ab immobilized on C1, CM4 and CM5 chips). (In general: Surface plasmon resonance follows binding to a sensor surface in real time, without labels.)
For test [2], the target named is T1, TNFR2 fused to the Fc portion of an IgG …. Briefly: SPR; standard kinetics: NGR-hTNF or hTNF 0.6–83 nM injected in duplicates over TNFR1 and TNFR2 (Fc fusions on immobilized anti-Fc Ab) at 200 RU; regeneration with Gly-HCl pH 2; data of the 1:2 (bivalent) model reported.
Test [3] has as its target T2, TNFR1 fused to the Fc portion of an IgG molecule (UniProt P19438 30-455). Briefly: SPR; stoichiometry evaluation at different receptor densities (anti-Fc Ab immobilized on C1, CM4 and CM5 chips).
Test [4] has as its target T2, TNFR1 fused to the Fc portion of an IgG …. In words: SPR; standard kinetics: NGR-hTNF or hTNF 0.6–83 nM injected in duplicates over TNFR1 and TNFR2 (Fc fusions on immobilized anti-Fc Ab) at 200 RU; regeneration with Gly-HCl pH 2; data of the 1:2 (bivalent) model reported.
The target in the next test is NGR-hTNF (human). In words: crystal structure; tetragonal crystals from 2.8 M MgSO4, 1 M NaCl, 0.1 M MES pH 6.0; data at 100 K; 2.65 Å.

Where “and” joins values, the source holds several entries; their conditions need not be identical. Equal entries are not always repeated.

T1 sequence (P20333 23-257): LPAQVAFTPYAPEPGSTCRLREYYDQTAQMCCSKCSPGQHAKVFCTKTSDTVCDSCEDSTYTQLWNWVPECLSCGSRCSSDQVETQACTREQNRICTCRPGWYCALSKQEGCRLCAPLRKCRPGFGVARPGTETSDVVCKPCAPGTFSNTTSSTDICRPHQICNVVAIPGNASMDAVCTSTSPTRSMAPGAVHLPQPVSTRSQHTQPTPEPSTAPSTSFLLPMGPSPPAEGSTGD
Chain of NGR-hTNF (chain, as listed by the source): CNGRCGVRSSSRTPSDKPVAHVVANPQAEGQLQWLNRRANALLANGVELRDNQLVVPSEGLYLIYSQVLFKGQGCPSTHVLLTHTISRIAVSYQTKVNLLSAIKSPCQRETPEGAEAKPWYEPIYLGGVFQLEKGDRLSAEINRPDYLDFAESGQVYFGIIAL

B1: NGR-hTNF (ligand)
chain: not shown
modifications: homotrimer; CNGRC motif presumably cyclised by a Cys1-Cys5 disulfide; native TNF disulfide
Regarding B1, in test [1], the stoichiometry N (usually the number of molecules, sites or subunits per partner or assembly) was 2 receptors per cytokine trimer and 3 receptors per cytokine trimer. Further, in test [2], the Kd stood at 57 nM, the koff1 was determined as 0.0336 s⁻¹, the koff2 worked out at 0.00039 s⁻¹ and the kon1 was found to be 588000 M⁻¹ s⁻¹. For the same molecule, in test [2], the kon2 is 0.00054 RU^−1·s^−1, the “t1/2 1” value turned out to be 0.3 min and the “t1/2 2” value was determined as 29.4 min.

B2: NGR-hTNF (ligand)
chain: not shown
modifications: homotrimer; CNGRC motif presumably cyclised by a Cys1-Cys5 disulfide; native TNF disulfide / extracellular domain by convention; IgG Fc carrier left out (two copies assumed from Fc dimerisation) …
As for B2, the “stoichiometry N” value in test [3] is 3 receptors per cytokine trimer and 2 receptors per cytokine trimer. Besides, in test [4], the Kd was determined as 3.6 nM, the koff1 stood at 0.00158 s⁻¹, the koff2 turned out to be 0.00119 s⁻¹ and the kon1 was 468000 M⁻¹ s⁻¹. Further, in test [4], the kon2 is 0.00429 RU^−1·s^−1, the “t1/2 1” value was 7.4 min and the “t1/2 2” value came out at 9.9 min.

B3: NGR-hTNF (ligand)
chain: not shown
modifications: homotrimer; CNGRC motif presumably cyclised by a Cys1-Cys5 disulfide; native TNF disulfide / homotrimer; CNGRC motif presumably cyclised by a Cys1-Cys5 disulfide; native TNF disulfide
Turning to B3, the “stoichiometry N” value in the test with NGR-hTNF came to 3.
